Assay results published in ChEMBL document CHEMBL4888484, “Replenishing the malaria drug discovery pipeline: Screening and hit evaluation of the MMV Hit Generation Library 1 (HGL1) against asexual blood stage Plasmodium falciparum ,using a nano luciferase reporter read-out” (2022).
In all, about 150,000 compounds went through this assay and about 540 (0.36%) showed an effect of 50% or more. The list shows a part of the results.

tested on: Plasmodium falciparum; test: Primary screen in NF54 nanoGlo assay, in single point, at 2uM, 72h; a lower Z score goes with more inhibition; format: functional, Erythrocyte; settings: timepoint 72 hour

| Structure (SMILES) | % Inhibition | Z score |
| --- | --- | --- |
| CCOC(=O)c1ccccc1OCc1cc([C@H]2Nc3ccccc3C(=O)N2c2ccc(OC)cc2)ccc1OC | 2% | -0.2 |
| CCN(CC)c1ccc(C(=O)NC[C@H]2CCS(=O)(=O)C2)cn1 | -26% | 2.32 |
| O=S(=O)(c1ccccc1)N1CCC(n2ccnn2)CC1 | -7% | 1.09 |
| Cc1ccc(OC2CCN(Cc3ccncc3)CC2)c(C(=O)N2CCCCO2)c1 | -10% | 0.86 |
| CN(C)c1ccc(C(=O)N2CC(O)(CO)C2)cc1 | 4% | -0.73 |
| O=C1CCNC(=O)C2(CCN(C(=O)C3CCC3)CC2)Cc2cccc(c2)Oc2ccc(cc2)C[C@@H](C(=O)O)N1 | -16% | 2.08 |
| CC[C@@H](CO)N1CCN(c2nnc(Cc3ccccc3)s2)CC1 | -6% | 0.82 |
| CN(Cc1ccco1)C(=O)c1cc(NC(=O)C2CCC2)c2c(c1)nc(-c1ccncc1)n2C | 9% | -1.21 |
| CC(C)(C)c1ccc(C(=O)N2CCC[C@H](c3nc(O)c4nnn(Cc5cccc(F)c5)c4n3)C2)cc1 | 6% | -0.72 |
| O=S(=O)(c1ccc(F)cc1)N1CCN(CC2CC3C=CC2C3)CC1 (centres undefined) | -5% | 0.7 |
| CC1(C)CN(C(=O)[C@H]2C[C@@H]2c2cccc(Cl)c2)[C@H]2COC[C@H]21 | -9% | 1.39 |
| COC(=O)CC1(NCC(=O)Nc2ccc(C(C)C)cc2)CCS(=O)(=O)CC1 | -12% | 2.11 |
| Cc1nc2n(n1)CC(NC1CCCN(C(=O)OC(C)(C)C)C1)CC2 (centres undefined) | -10% | 1.86 |
| O=S(=O)(C[C@H]1CCCO1)NC1CCC2(CC1)CC2 | -1% | 0.07 |
| CCN(Cc1cnn(CC)c1)C(=O)c1cccc(NCc2cccs2)c1 | -6% | 0.6 |
| COc1ccc(C(=O)N2CCC[C@H](c3ccccc3C)C2)c(F)c1F | 10% | -1.25 |
| CCNC(=O)N[C@H]1CO[C@H]2[C@@H]1OC[C@@H]2Nc1nccc(-c2ccccc2OC)n1 | 7% | -0.77 |
| Cc1cn(-c2ccccc2Cl)nc1NC(=O)N[C@H]1CCCOC1 | -10% | 1.4 |
| COc1ccc(N2C(=O)C3C4CCCC4CN3C2=O)cc1NS(C)(=O)=O (centres undefined) | -8% | 0.95 |
| Cc1ccc([C@]2(C)NC(=O)N(Cc3cccc(F)c3)C2=O)o1 | -9% | 0.73 |
| COc1cc(OC)cc(Oc2ccc(CNCc3n[nH]c(C)n3)cc2)c1 | -13% | 1.17 |

| Structure (SMILES) | % Inhibition | Z score |
| --- | --- | --- |
| CCC(=O)N1CCC(NC(CN2CCC(C)CC2)c2cccs2)C1 (centres undefined) | -7% | 1.34 |
| O=S(=O)(Nc1cccc(C2OCCCO2)c1)c1ccccc1 | -5% | 0.86 |
| Cc1cccnc1OC[C@H]1CCCN1C | -1% | 0.12 |
| Clc1ccccc1OCc1ccc(-c2nc3c4ccccc4ncn3n2)o1 | -13% | 1.71 |
| C[C@@H](C(=O)Nc1ccc2c(c1)CCN(C)C2=O)n1cnc2c(N)ncnc21 | -23% | 2.66 |
| Cc1cccc(NC(=O)c2cn3c4c(cccc4c2=O)C[C@@H]3C)c1 | 7% | -0.88 |
| Cc1nc(N(C)CC(C)(C)S(C)(=O)=O)c2c(C)csc2n1 | 38% | -3.86 |
| COc1cc(OC)cc(C(=O)Nc2ccc3nc(N4CCC(C)CC4)cc(C)c3c2)c1 | 58% | -3.66 |
| O=C(O)c1ccc(C[C@H]2CCCN(C(=O)Cc3cccnc3)C2)cc1 | -12% | 2.4 |
| CS(=O)(=O)N1CCC(C(=O)N2CCN(S(=O)(=O)c3ccccc3)CC2)CC1 | -1% | 0.14 |
| O=C(NCCOc1ccc(F)cc1F)NCCC1(O)CCC1 | -26% | 2.6 |
| O=C(c1nn(-c2ccccc2)c(=O)c2ccccc12)N1CCC[C@H]1c1nnc2ccccn12 | -6% | 1.19 |
| COC(=O)c1cc(C2CC2)nc2c1c(-c1ccc(F)cc1)nn2[C@H]1CCS(=O)(=O)C1 | 2% | -0.3 |
| O=S(=O)(NC1CC2CCC1C2)c1cc(Cl)ccc1Cl (centres undefined) | -14% | 1.87 |
| O=C(NCC1CCCC(O)C1)C1CCN(S(=O)(=O)c2cc(Cl)ccc2Cl)CC1 (centres undefined) | -14% | 2.36 |
| Cc1c(-c2noc(C(=O)NC3CCN(Cc4ccccc4)CC3)n2)oc2ccccc12 | -12% | 1.42 |
| COc1cc(-c2nc(CN(C)C[C@H]3CCCO3)c(C)o2)cc2c1OCO2 | 1% | -0.19 |
| COc1cc2c(cc1OC)CN(C(=O)Cn1c(C(F)(F)F)ccc(C(N)=O)c1=O)CC2 | -12% | 1.91 |
| CC(C)[C@H](Cc1ccc(F)cc1)NS(C)(=O)=O | -8% | 0.99 |
| CC[C@H](C)[C@H](NC(=O)c1ccccn1)c1nc2ccccc2[nH]1 | -12% | 1.5 |
| CCN(C(=O)N(CC)[C@H]1CCN(CC(F)(F)F)C1)C(C)C | 21% | -2.73 |

| Structure (SMILES) | % Inhibition | Z score |
| --- | --- | --- |
| Fc1ccc(COc2nccs2)c(F)c1 | 10% | -1.54 |
| Cc1cccc(N2CCN(C(=O)Cn3cccc3-c3nc(-c4ccccc4)cs3)CC2)c1C | 5% | -0.74 |
| CC1CN(Cc2ccccc2)CCC1N(C)Cc1csc(-c2ccccn2)n1 (centres undefined) | -9% | 1.03 |
| O=C(C[C@@H]1O[C@H](CNCc2ccccn2)[C@@H](O)[C@H]1O)NCc1ccc(F)cc1 | 31% | -3.45 |
| CC(C)c1n[nH]c(NC(=O)c2ccc3nnnn3c2)n1 | -12% | 1.97 |
| C[C@@H](CCn1cccn1)OC(=O)c1cnn(C)c1 | -14% | 1.6 |
| COc1cncc(C(Nc2ncc(F)c(N(C)C)n2)[C@H]2C[C@H](O)C2)c1 (some centres undefined) | -8% | 1.47 |
| Cn1cc(NS(=O)(=O)c2cn[nH]c2C(C)(C)C)cn1 | -5% | 0.72 |
| COCC(=O)NCC1(c2ccc([C@H](C)O)s2)CCCC1 | -6% | 0.81 |
| Cc1c(C(=O)NCc2ccc(N(C)C)cc2)cccc1-n1nnc2cccnc21 | -4% | 0.81 |
| CC1(C)NC(=O)N(Cc2noc(C3(c4ccccc4)CCC3)n2)C1=O | -8% | 0.76 |
| Cc1cc(C(=O)N[C@@H]2CCC[C@@H](C(=O)N(C)Cc3cccnc3)CC(=O)N(C)C2)c(C(F)(F)F)o1 | -6% | 1.1 |
| CC(NC1CC(=O)N(C2CC2)C1)c1cccc(-c2ccncc2)c1 (centres undefined) | -3% | 0.6 |
| CCc1nc(CNc2cc(OC)c(Br)cn2)cs1 | 29% | -3.33 |
| Cc1nc(O)cc(CCNC(=O)Nc2ccc3c(c2)O[C@@H](C)C(=O)N3C)n1 | -4% | 0.93 |
| CN1CCC(C(=O)N2CCCC(C(F)(F)F)C2)CC1=O (centres undefined) | -4% | 0.51 |
| O=C([C@@H]1CCCN1C(=O)c1cncs1)N1CCCCC1 | 2% | -0.38 |
| O=C(c1ccc2c(c1)CCCC2)N1CCC[C@H]1c1ccsc1 | 1% | -0.23 |
| CC(C)Cc1nc(OCC(=O)c2ccccc2)c(C#N)c2c1CCC2 | -19% | 2.02 |
| CN(C(=O)[C@H]1CCc2nnnn2CC1)c1ccc(F)cc1 | -1% | 0.17 |
| Cc1cc(C#N)c(=O)[nH]c1C(=O)NCCCC(C)C | -9% | 1.25 |

| Structure (SMILES) | % Inhibition | Z score |
| --- | --- | --- |
| Cc1cc(Cl)cc(C)c1CNCCNC(=O)N(C)C | -2% | 0.29 |
| COc1ccc(Cc2c(C)nc(C)nc2N2CCN(C(=O)c3cccs3)CC2)cc1 | 4% | -0.34 |
| CN1CCCNC(=O)C12CCN(C(=O)c1nc3ccccc3[nH]1)CC2 | 3% | -0.35 |
| CC(C)Cn1ncc(NC(=O)N2CCc3cc(F)ccc3C2)c1C(F)F | 13% | -1.71 |
| Cc1c(Cl)cc(C(=O)N(C)[C@@H](C)c2cncs2)cc1Cl | -9% | 1.31 |
| CCOC(=O)N1CC[C@H](NCc2nc3cc(C)ccc3[nH]2)C1 | -1% | 0.13 |
| CCn1cc(C2OCCC2CNCc2ccc(OC)c(C#N)c2)cn1 (centres undefined) | -3% | 0.5 |
| CN(Cc1csc(-c2cccs2)n1)C(=O)c1ccc2scnc2c1 | 2% | -0.29 |
| Cn1cc(Cl)cc1C(=O)N1CC[C@](C)(O)[C@@H](O)C1 | 1% | -0.13 |
| O=C(c1noc2c1CCCC2)N1CCC(n2c(=O)[nH]c3ccccc3c2=O)CC1 | -15% | 1.95 |
| Cc1nnc(N2CCC[C@H]2COc2ccc(F)cc2)nc1C | -22% | 4.29 |
| Cc1c(NC(=O)COc2ccc(OCc3ccccc3)cc2)c(=O)n(-c2ccccc2)n1C | 9% | -1.93 |
| O=C(Nc1ccc(N2CCCS2(=O)=O)cc1)c1ccc2nsnc2c1 | 0% | 0.05 |
| COc1cc(F)c(CN(C)Cc2cc(C3CC3)[nH]n2)c(F)c1 | -3% | 0.42 |
| CCCCN(CC(=O)N(Cc1ccco1)C[C@H]1CCCO1)C(=O)COC | 4% | -0.57 |
| CCN=C(NCCOC)NCc1ccc(F)c(COC)c1 | -13% | 1.21 |
| COC[C@@]1(C(=O)OC(C)(C)C)CCCN1CCC(=O)NC(N)=O | -8% | 1.18 |
| Cc1ccccc1CN1CCCN(C(=O)c2cnsn2)CC1 | 8% | -0.99 |
| Cc1sc(NC(=O)C(C)C)c(C(=O)N2CCn3cncc3C2)c1C | 11% | -1.58 |
